In all, about 33,000 sequences were measured (“E-score (-0.5 to 0.5)”: median about -0.053, highest 2% from about 0.37 on). The list shows a part of the results.
target: Hap1 (UniProt P0CE41); assay: PBM E-score (8-mer binding enrichment) (E-score (-0.5 to 0.5)); higher = stronger / more preferred TF binding; most listed sequences are background and not binding sites; conditions: protein concentration: 200 nM; construct: GST-DNA-binding domain
Protocol: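 Universal 'all 10-mer' protein binding microarrays (Agilent AMADID 015681) probed with GST-tagged S. cerevisiae TFs (full-length or DBD) made by in vitro transcription/translation (PURExpress), about 100-200 nM. Bound TF was detected with fluorescent anti-GST. Each ungapped 8-mer (which stands for itself and its reverse complement) is scored by the PBM enrichment score (E-score), a modified Wilcoxon-Mann-Whitney statistic from -0.5 to +0.5, computed with the Universal PBM Analysis Suite. Scale: above 0.35 generally sequence-specific binding.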

Chain of UniProt P0CE41 (P0CE41 whole entry, the tested form may be a part): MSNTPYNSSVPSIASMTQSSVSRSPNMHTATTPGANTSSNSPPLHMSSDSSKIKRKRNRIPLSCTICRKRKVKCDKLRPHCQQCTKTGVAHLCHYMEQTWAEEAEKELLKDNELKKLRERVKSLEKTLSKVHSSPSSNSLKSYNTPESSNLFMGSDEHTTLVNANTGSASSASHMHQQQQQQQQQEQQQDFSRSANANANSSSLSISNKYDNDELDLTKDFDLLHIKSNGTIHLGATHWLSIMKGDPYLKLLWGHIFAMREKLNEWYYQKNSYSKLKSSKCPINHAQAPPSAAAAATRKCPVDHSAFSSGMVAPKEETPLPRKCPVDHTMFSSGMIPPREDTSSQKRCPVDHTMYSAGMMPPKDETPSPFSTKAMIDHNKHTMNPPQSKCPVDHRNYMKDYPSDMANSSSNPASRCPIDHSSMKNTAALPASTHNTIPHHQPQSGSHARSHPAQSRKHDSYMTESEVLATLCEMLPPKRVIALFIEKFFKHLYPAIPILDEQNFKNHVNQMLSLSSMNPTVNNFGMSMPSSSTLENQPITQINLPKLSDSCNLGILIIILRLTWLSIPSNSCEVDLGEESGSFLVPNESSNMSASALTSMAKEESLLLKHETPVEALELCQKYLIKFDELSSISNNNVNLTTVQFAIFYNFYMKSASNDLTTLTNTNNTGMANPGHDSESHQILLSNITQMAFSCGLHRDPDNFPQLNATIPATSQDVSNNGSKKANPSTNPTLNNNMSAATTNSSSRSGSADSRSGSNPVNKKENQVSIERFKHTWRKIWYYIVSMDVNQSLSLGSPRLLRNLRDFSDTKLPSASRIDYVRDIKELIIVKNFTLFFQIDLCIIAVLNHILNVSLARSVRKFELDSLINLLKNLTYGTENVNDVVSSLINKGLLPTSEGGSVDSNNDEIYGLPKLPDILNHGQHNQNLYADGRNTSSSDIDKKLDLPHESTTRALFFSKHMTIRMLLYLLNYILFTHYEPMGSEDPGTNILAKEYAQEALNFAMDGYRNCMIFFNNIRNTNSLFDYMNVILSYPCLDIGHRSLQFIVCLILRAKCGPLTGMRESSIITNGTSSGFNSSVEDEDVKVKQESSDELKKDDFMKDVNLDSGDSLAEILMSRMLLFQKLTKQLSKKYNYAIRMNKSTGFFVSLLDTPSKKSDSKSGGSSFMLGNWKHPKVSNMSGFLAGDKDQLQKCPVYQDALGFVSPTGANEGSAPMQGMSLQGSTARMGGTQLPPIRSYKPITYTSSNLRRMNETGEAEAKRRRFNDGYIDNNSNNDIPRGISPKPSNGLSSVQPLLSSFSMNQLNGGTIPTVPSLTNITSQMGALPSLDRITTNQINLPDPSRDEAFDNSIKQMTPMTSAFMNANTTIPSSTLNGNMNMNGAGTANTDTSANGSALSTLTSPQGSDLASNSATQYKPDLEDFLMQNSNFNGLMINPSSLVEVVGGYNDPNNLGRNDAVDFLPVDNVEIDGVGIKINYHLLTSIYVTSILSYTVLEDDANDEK

Row | Sequence | PBM E-score
1 | GCGAGCAC | -0.187
2 | ATTCTTCG | 0.105
3 | CGTGATAA | -0.0733
4 | GAGGCCAC | -0.189
5 | AGTTCACC | 0.0128
6 | GTTTGGTA | -0.00217
7 | CCTCACAG | -0.185
8 | CTGCATAA | -0.0234
9 | AAAGCCTT | -0.182
10 | CAATGATA | -0.199
11 | AGGCCACA | -0.218
12 | AGGTAATA | 0.0739
13 | GTGGCCCA | -0.113
14 | ATCCCTCG | 0.0849
15 | CCGCGGCG | 0.317
16 | GACGCCTA | 0.0426
17 | CCAGTGAA | -0.166
18 | TCCCCAAA | -0.216
19 | CGATTGTC | 0.0632
20 | CAAAAGCC | 0.161
21 | AATACAGC | 0.0854
22 | CTGATCGA | -0.208
23 | ACTTCATC | -0.0854
24 | GAAGGTAC | -0.267
25 | AGGTCGTG | -0.347

Row | Sequence | PBM E-score
26 | CAGCGCAG | -0.114
27 | CACGCTGA | -0.22
28 | CAAGACCC | -0.0402
29 | AAGACTCG | 0.0784
30 | AAGGCTGA | -0.16
31 | AAATTGTG | -0.296
32 | AAGAACAC | -0.00923
33 | ACCGAACT | 0.152
34 | CTGGTTTC | 0.0946
35 | AGCACAAC | 0.152
36 | ATACTTTG | -0.172
37 | GGTCGTGA | -0.18
38 | GAGAACCC | -0.0871
39 | TCAATGGA | -0.0909
40 | CTCTTATA | 0.0711
41 | AGATGCAG | -0.31
42 | AATTATCT | 0.0828
43 | CAGTGCAC | -0.0115
44 | ACCTGACC | -0.148
45 | AAAAACAC | -0.112
46 | GACCCCAC | 0.025
47 | AGTGTGCA | -0.0705
48 | CAAGACGA | -0.145
49 | CTGGCGGC | 0.085
50 | ACGTTGAT | -0.104

Row | Sequence | PBM E-score
51 | GTAGCGTA | -0.0513
52 | ATTCGATG | -0.0371
53 | ATCGCTCA | -0.0431
54 | CATAGGTA | -0.0284
55 | ATTTGAGC | -0.118
56 | ACAGCCCA | -0.164
57 | CCGACCGG | 0.428
58 | CGATGCAA | 0.0923
59 | ATGACATA | -0.204
60 | CCCCTAGA | -0.311
61 | AGAAATCA | -0.067
62 | CCACACAC | 0.0633
63 | AACGCGCG | 0.13
64 | CTCCGGAC | 0.454
65 | ACCGAGGC | 0.189
66 | GACGGTCA | -0.0752
67 | GGTCTCGA | 0.0148
68 | ATGGAAAT | 0.0825
69 | GGGATACA | 0.0801
70 | GGCAGCGA | 0.0265
71 | AAGCACCG | 0.141
72 | ATAGGGAT | -0.102
73 | CACTGGAC | -0.0282
74 | GCGCCTGA | 0.0487
75 | GCGAGGAC | -0.155

Row | Sequence | PBM E-score
76 | CGACGGAA | 0.265
77 | GTCACAAC | -0.0294
78 | AGTTCATA | -0.0246
79 | CTTGCTTC | -0.128
80 | CCTCGGCA | 0.294
81 | ACAACAAA | -0.145
82 | CTCTGGAA | -0.193
83 | ACTACTTA | -0.127
84 | TCCCGGGA | 0.392
85 | GGCCAGAA | -0.0857
86 | CGCTTCGA | 0.00404
87 | CAGACGAA | 0.0649
88 | AAACCGCG | 0.235
89 | CGAGCAAA | 0.087
90 | CCGAGATA | 0.32
91 | CATGCTTC | -0.0171
92 | CGCGGTCC | 0.316
93 | AAATGAAC | -0.259
94 | GTCATTAA | 0.00718
95 | GACAGATA | -0.0328
96 | CAGCTACG | -0.239
97 | GCCACGTA | -0.213
98 | CTATCTGC | 0.0127
99 | GGGAAATA | 0.13
100 | CCCGCAGC | 0.129

Row | Sequence | PBM E-score
101 | CAACGGCA | 0.0809
102 | GGCAGTTA | -0.0681
103 | GATCGCAA | -0.0357
104 | AGTGATGG | -0.186
105 | CACCTGGG | -0.296
106 | AGCCACGA | -0.155
107 | TAGAAAAA | -0.115
108 | AACTATGA | -0.161
109 | GAACGTCC | 0.0447
110 | CCATCGAC | -0.00514
111 | ATGGTAAC | -0.0519
112 | AGGATAAC | -0.244
113 | ATCGATAC | 0.0912
114 | ACTTAGTG | -0.123
115 | AGGCCATA | 0.0268
116 | CTACGCAA | -0.155
117 | CCTAGCAG | -0.26
118 | GTTGGTTA | -0.0552
119 | AGTCTTAT | -0.177
120 | AGTTTACG | 0.0034
121 | AGTGCAAC | -0.0166
122 | AAACGCAA | -0.027
123 | GTGCTCGA | -0.0478
124 | GTGTGGTA | -0.174
125 | CGCAATAC | 0.0613

Row | Sequence | PBM E-score
126 | GAGCATCC | 0.0949
127 | CGACTCCA | -0.23
128 | GGTCGATA | 0.0664
129 | GAGATGAC | -0.0675
130 | CCCCATCG | 0.172
131 | CGGACATA | 0.489
132 | ATACGGCC | 0.197
133 | GCCAAATA | 0.0541
134 | GCCGATCC | 0.258
135 | GTGGTGCA | 0.0173
136 | CCATCTGC | 0.111
137 | AACCAGAC | -0.325
138 | CCGTAGGC | 0.109
139 | GACAGCCC | -0.0225
140 | ACATGCAC | -0.0891
141 | GGATAGTA | 0.107
142 | CTGATTAC | -0.00333
143 | GTCACCGA | 0.142
144 | TATTAGCA | -0.0543
145 | ACCGCCCG | 0.36
146 | CCCAGTTA | -0.0732
147 | CACATGTA | -0.19
148 | AGTCTCAT | -0.129
149 | CTGTATTA | -0.0381
150 | CGTTGGTA | 0.117

Row | Sequence | PBM E-score
151 | CCCAGTGA | -0.248
152 | GACTTTGA | -0.195
153 | ATAATATC | 0.113
154 | AAGTCGGG | 0.153
155 | CTCGACAC | -0.138
156 | CTATTGGA | -0.0708
157 | CTAGGGAA | -0.196
158 | CGCAACAC | 0.103
159 | GCGCAACC | 0.0597
160 | CACGGTAA | 0.131
161 | CATTACGG | 0.108
162 | GGTCTAGA | -0.208
163 | GCGCATAC | 0.071
164 | CTCCCCAA | -0.0995
165 | AATTATTA | 0.0259
166 | CTCCTCAA | -0.0916
167 | CGCTAGCC | -0.0182
168 | GTTCCCAA | -0.115
169 | CCGATATA | 0.44
170 | CCTTTTCG | 0.0546
171 | ACGTCTAA | -0.182
172 | ATCTAAAG | 0.0067
